PubChem BioAssay AID504332 (National Center for Advancing Translational Sciences (NCATS), 2011)
Hit rate of the full screen: of about 350,000 compounds, about 31,000 (8.9%) were called active. The shares of active, inactive and inconclusive entries below differ from those in the screen. Calls come from the whole dose curve; as a rule, active = well fitted inhibition curve with a large enough effect; inconclusive = small, poorly fitted or top-dose-only effect; inactive = no such curve, though single readings can be large or run the other way. Potencies of inconclusive entries are doubtful fits and often do not repeat.

Target: Histone-lysine N-methyltransferase EHMT2 (Homo sapiens) (UniProt Q96KQ7)
Sequence of UniProt Q96KQ7 (Q96KQ7 whole entry, looked up): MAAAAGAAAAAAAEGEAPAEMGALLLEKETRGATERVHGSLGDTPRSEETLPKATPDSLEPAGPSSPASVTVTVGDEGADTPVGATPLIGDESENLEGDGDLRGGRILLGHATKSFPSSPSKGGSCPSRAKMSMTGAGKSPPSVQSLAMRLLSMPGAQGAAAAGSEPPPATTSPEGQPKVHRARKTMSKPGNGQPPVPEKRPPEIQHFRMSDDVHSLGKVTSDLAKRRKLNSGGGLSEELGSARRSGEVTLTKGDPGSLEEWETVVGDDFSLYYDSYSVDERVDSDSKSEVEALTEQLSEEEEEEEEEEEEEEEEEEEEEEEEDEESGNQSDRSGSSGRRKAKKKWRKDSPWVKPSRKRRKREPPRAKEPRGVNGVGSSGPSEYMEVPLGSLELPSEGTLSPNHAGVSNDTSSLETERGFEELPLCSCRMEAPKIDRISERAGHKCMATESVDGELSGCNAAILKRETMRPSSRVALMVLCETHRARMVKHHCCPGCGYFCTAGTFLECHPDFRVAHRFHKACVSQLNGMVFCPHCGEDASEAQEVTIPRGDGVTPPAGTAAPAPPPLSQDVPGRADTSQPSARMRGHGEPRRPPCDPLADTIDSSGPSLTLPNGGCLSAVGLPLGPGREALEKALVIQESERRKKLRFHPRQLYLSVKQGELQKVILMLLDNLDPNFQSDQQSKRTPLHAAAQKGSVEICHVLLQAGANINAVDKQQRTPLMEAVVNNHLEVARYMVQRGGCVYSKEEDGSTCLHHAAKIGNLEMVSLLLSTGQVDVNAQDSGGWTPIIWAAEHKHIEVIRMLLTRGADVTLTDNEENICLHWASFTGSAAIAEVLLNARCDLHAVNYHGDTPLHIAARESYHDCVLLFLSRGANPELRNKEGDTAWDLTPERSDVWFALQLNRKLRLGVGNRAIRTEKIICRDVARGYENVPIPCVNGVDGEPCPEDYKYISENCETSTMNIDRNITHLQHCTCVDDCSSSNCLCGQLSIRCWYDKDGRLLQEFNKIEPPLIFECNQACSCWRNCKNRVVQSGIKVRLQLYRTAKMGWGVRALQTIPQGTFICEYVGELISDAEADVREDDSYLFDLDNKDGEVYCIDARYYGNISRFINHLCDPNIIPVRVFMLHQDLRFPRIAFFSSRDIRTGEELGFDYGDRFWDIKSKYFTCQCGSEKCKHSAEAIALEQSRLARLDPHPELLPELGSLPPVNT
Assay: qHTS Assay for Inhibitors of Histone Lysine Methyltransferase G9a; note: nearly all actives have a fitted effect of over 75% in size
Conditions: G9a H3K9 monomethylation, AlphaScreen, 2 h; activity, negative = inhibition: at 59 µM (top of the series) unless noted
Outline: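 AlphaScreen detection with an anti-monomethyl H3K9 antibody quantified product after a 2 h room-temperature reaction containing 500 nM biotinylated H3K9 peptide, 20 µM SAM and 20 nM enzyme, which had been preincubated 15 min with compound.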
% is set by controls: 0 for no effect and ±100 for the full control effect; potency is the fitted concentration of half-maximal effect; tags give direction and shape of the fitted curve.

| SMILES | activity, negative = inhibition | Potency |
| --- | --- | --- |
| COCc1cc(C)nc(OCC(=O)N/N=C/c2ccccc2O)c1C#N | inactive: 47.4% [at 102 µM] | – |
| CCOc1ccc2c(c1)C(N(CCN1CCOCC1)C(=O)Nc1ccccc1)CC(C)(C)O2 (stereo not drawn) | – | inconclusive: 79.4 µM [inhibitor, single point] |
| CC(=O)Oc1ccccc1/C=C1\CCOC1=O | – | inconclusive: 25.1 µM [inhibitor, single point] |
| O=C(Cn1c(=O)oc2cc(S(=O)(=O)N3CCCCC3)ccc21)NCc1ccc(F)cc1 | – | inconclusive: 22.4 µM [inhibitor, partial curve, poor fit] |
| CCCS(=O)(=O)NCCc1cc2c(OC)ccc(OC)c2[nH]c1=O | inactive: -12.7% [at 102 µM] | – |
| Cc1ccccc1S(=O)(=O)NCc1ccc(N2CCN(C)CC2)cc1 | inactive: 4.06% [at 102 µM] | – |
| COc1ccc(CC(=O)NC2CC(=O)N(c3ccc(C)c(C)c3)C2)cc1OC (stereo not drawn) | inactive: 9.97% | – |
| Cc1cc(C)cc(C(=O)NC(CC(N)=O)c2ccc(NCCN3CCOCC3)c([N+](=O)[O-])c2)c1 (stereo not drawn) | – | inconclusive: 50.1 µM [inhibitor, partial curve, poor fit] |
| CC12CCC(C(=O)NC3CCCCC3)([C@H](Br)C1=O)C2(C)C (stereo partly drawn) | – | inconclusive: 89.1 µM [inhibitor, partial curve, poor fit] |
| Cc1cc(C(=O)NCCCn2ccnc2)sc1-c1ccccc1 | inconclusive: -68.2% [inhibitor] | – |
| O=C(C1=C[C@H](c2ccc(C(F)(F)F)cc2)C[C@H](OCc2ccc(CO)cc2)O1)N1CCN(Cc2ccccc2)CC1 | inconclusive: -95.9% [inhibitor] | – |
| O=C(CN1C(=O)CCc2cc(S(=O)(=O)N3CCCCC3)ccc21)NCc1ccc(Cl)cc1 | – | inconclusive: 35.5 µM [inhibitor, partial curve, poor fit] |
| CCc1cccc(C)c1NC(=O)c1ccoc1C | – | inconclusive: 39.8 µM [inhibitor, single point] |
| CCn1cc(C(=O)O)c(=O)c2cnc(N3CCN(C(=S)NC(=O)c4ccc(OC)cc4)CC3)nc21 | inactive: -47.1% [at 102 µM] | – |
| CN(C)c1ccc(/C=C/C=C2/SC(=S)N(c3ccccc3)C2=O)cc1 | – | inconclusive: 2 µM [inhibitor, full curve, poor fit] |
| COC(=O)c1ccccc1NC(=O)C1CCCN(c2nnc(C)c3c(C)n(-c4ccccc4)nc23)C1 (stereo not drawn) | – | inconclusive: 8.91 µM [inhibitor, single point] |
| COc1ccc(CN2C(=O)c3cccnc3C2=O)cc1S(=O)(=O)NCc1ccc(C)cc1 | inactive: -23.7% [at 102 µM] | – |
| CCCn1c(N)c(N(CCOC)C(=O)COC(=O)CSc2cc(C)c3ccccc3n2)c(=O)[nH]c1=O | – | inconclusive: 89.1 µM [inhibitor, single point] |
| COc1ccc(-c2nc(Cn3c(SCc4ccccc4F)nc4cccnc43)c(C)o2)cc1 | – | inconclusive: 10 µM [inhibitor, partial curve] |
| CCOc1cccc(CNc2ccc(O)cc2)c1OCc1ccc(Cl)cc1 | – | active: 14.1 µM |
| c1cncc(-c2nc3ccccn3c2Nc2ccc3c(c2)OCCO3)c1 | – | inconclusive: 89.1 µM [inhibitor, single point] |
| O=C(COc1ccccc1)NC(NC(=S)Nc1ccccc1C(=O)O)C(Cl)(Cl)Cl (stereo not drawn) | – | inconclusive: 10 µM [inhibitor, partial curve, poor fit] |
| Cc1cccc(-n2c(-c3csc(C(C)C)c3)n[nH]c2=S)c1 | – | inconclusive: 1 µM [inhibitor, partial curve, poor fit] |

| SMILES | activity, negative = inhibition | Potency |
| --- | --- | --- |
| COc1cc(C(C(=O)NC2CCCCC2)N(C(=O)Cc2c[nH]c3ccccc23)c2ccccc2C)cc(OC)c1OC (stereo not drawn) | – | active: 39.8 µM |
| Cc1ccc(N2C(=O)c3ccccc3C2O)nc1 (stereo not drawn) | – | inconclusive: 89.1 µM [inhibitor, single point] |
| COc1ccccc1N1CC(C(=O)OCC(=O)Nc2cc(C)on2)CC1=O (stereo not drawn) | – | inconclusive: 79.4 µM [inhibitor, single point] |
| COc1ccc(NC(C)=[N+](C)CCNS(=O)(=O)c2ccc(Cl)cc2)cc1 | – | inconclusive: 10 µM [inhibitor, full curve, poor fit] |
| CC(=O)Nc1ccc(S(=O)(=O)NCc2ccc(C(=O)NC(C)c3ccccc3)cc2)cc1 (stereo not drawn) | – | inconclusive: 31.6 µM [inhibitor, single point] |
| CC(=O)/C(C[N+]1(C)CCCCC1)=N\O | – | inconclusive: 1.78 µM [inhibitor, partial curve, poor fit] |
| COc1ccc(NC(=O)CSc2n[nH]c(N)n2)cc1OC | inactive: -12.5% [at 102 µM] | – |
| COCCCNc1oc(-c2ccccc2F)nc1C#N | inactive: 5.05% [at 102 µM] | – |
| CC1(C)Cc2c(sc3[nH]c(=S)n(Cc4ccco4)c(=O)c23)CO1 | – | active: 50.1 µM |
| O=C1CSC(=S)N1/N=C/C=C/c1ccccc1 | – | active: 39.8 µM |
| Cc1ccc(OCC(=O)N2CCN(c3nnc(-c4ccc(C)cc4)c4ccccc34)CC2)cc1 | – | inconclusive: 79.4 µM [inhibitor, single point] |
| CCCCn1nc(C(=O)Oc2ccc3c(C)cc(=O)oc3c2)c2ccccc2c1=O | – | active: 2.82 µM |
| COc1cccc(CNCCSc2nnnn2-c2ccccc2)c1OC | inactive: 1.38% | – |
| O=C(c1ccncc1)N1CCC2(CC1)CCN(c1ccncc1)CC2 | inactive: -0.94% [at 12.7 µM] | – |
| CC(=O)N1CCC(N2CCN(c3ccccc3F)CC2)CC1 | – | inconclusive: 89.1 µM [inhibitor, single point] |
| Cc1ccc(CNC(=O)c2ccccc2NC(=O)c2nsc3ccccc23)cc1 | inactive: 5.39% | – |
| N#Cc1ccc(C(=O)CSc2nnc(-c3ccc(C(F)(F)F)cn3)s2)cc1 | – | inconclusive: 44.7 µM [inhibitor, partial curve, poor fit] |
| Cc1ccc(NC(=O)c2ccc([N+](=O)[O-])cc2Cl)nc1 | – | inconclusive: 25.1 µM [inhibitor, single point] |
| CCCCn1c(-c2cccc(C)c2)nc2cc3[nH]c(=O)c(C(C)C)nc3cc21 | – | inconclusive: 89.1 µM [inhibitor, single point] |
| Cc1nc(C)c(C(=O)NCCC(c2ccccc2)c2ccccc2)o1 | – | inconclusive: 89.1 µM [inhibitor, single point] |
| CC(C)(C)OC(=O)NCCc1nnc(SCc2ccc(Cl)cc2Cl)o1 | inactive: 5.69% [at 12.7 µM] | – |
| CC1=C(C(=O)OCc2ccc(C)cc2)C(c2cccc(F)c2F)CC(=O)N1 (stereo not drawn) | inactive: 5.39% | – |
| CCOC(=O)c1c(C)oc2c(CC(=O)c3ccccc3)c(Cl)c(O)c(O)c12 | inactive: -14.5% | – |

| SMILES | activity, negative = inhibition | Potency |
| --- | --- | --- |
| Cc1ccc2c(c1)c1c3n2CCN(C(=O)c2ccc(C(F)(F)F)cc2)C3CCC1 (stereo not drawn) | – | inconclusive: 10 µM [inhibitor, partial curve] |
| COc1ccc(-c2cc(C(F)(F)F)n3nc(C(=O)Nc4cc(C)ccc4C)cc3n2)cc1 | inactive: -1.36% | – |
| CC(C)Oc1ccc(C(=O)CCN2CCCCC2)cc1 | – | active: 7.94 µM |
| O=C(/C=C/NNC(=O)c1cccc(Br)c1)c1ccccc1 | – | inconclusive: 70.8 µM [inhibitor, single point] |
| O=C(Cc1ccccc1)NC(=S)Nc1cccc(C(F)(F)F)c1 | – | inconclusive: 89.1 µM [inhibitor, single point] |
| Cn1nc(C(=O)Nc2sccc2C(N)=O)ccc1=O | – | inconclusive: 39.8 µM [inhibitor, single point] |
| COc1cccc2sc(N(CCCN(C)C)C(=O)c3sc4ccccc4c3Cl)nc12 | – | inconclusive: 31.6 µM [inhibitor, single point] |
| Cc1cc(C2C(=O)C(C(=O)c3ccc(Cl)cc3)C(=O)CC2(C)C)on1 (stereo not drawn) | – | inconclusive: 1 µM [inhibitor, partial curve, poor fit] |
| Cc1nn(C(=O)c2cccc(F)c2)c(C)c1S(=O)(=O)N1CCOCC1 | inactive: -5.88% | – |
| CCCOC1CCCN(C(=O)c2cc(Cl)c(Cl)cc2C(=O)O)C1 (stereo not drawn) | – | inconclusive: 50.1 µM [inhibitor, partial curve, poor fit] |
| CN(C)C=Nc1c(C(=O)c2ccccc2)sc2nccc(N(C)C)c12 | – | inconclusive: 89.1 µM [inhibitor, partial curve, poor fit] |
| Cc1nc(C)c(CCNC(=O)c2ccccc2Br)s1 | – | inconclusive: 15.8 µM [inhibitor, partial curve] |
| O=C(O)[C@@H]1CCCN1 | inactive: -0.0768% | – |
| COC(=O)Nc1ccc(S(=O)(=O)Nc2ccc(C(=O)O)cc2)cc1 | inactive: -2.89% [at 102 µM] | – |
| N#Cc1cc2cc3c(cc2nc1N1CCCCC1)OCCO3 | – | inconclusive: 70.8 µM [inhibitor, partial curve, poor fit] |
| Cc1ccc(C(C[N+](=O)[O-])c2c(C)cc3ccccn23)cc1 (stereo not drawn) | – | inconclusive: 28.2 µM [inhibitor, single point] |
| COC(=O)c1c(NC(C)=O)sc(C(=O)N2CCOCC2)c1C | inactive: 29% [at 102 µM] | – |
| Cc1nc(N=C(N)N)nc2c(C)cccc12 | – | inconclusive: 56.2 µM [inhibitor, partial curve] |
| CC(C)(C)[Si](OCC[C@@H]1C[C@@]1(C)[C@@H](NP(=O)(c1ccccc1)c1ccccc1)c1ccccc1)(c1ccccc1)c1ccccc1 | – | inconclusive: 79.4 µM [inhibitor, single point] |
| O=C(c1cc2n(n1)C(C(F)(F)F)CC(c1ccco1)N2)N1CCc2ccccc2C1 (stereo not drawn) | – | inconclusive: 11.2 µM [inhibitor, partial curve] |
| CCN(CCNC(=O)Cn1cc2c(n1)CCCC2)c1ccccc1 | – | inconclusive: 11.2 µM [inhibitor, single point] |
| CC(Sc1nnc(Cc2cccs2)n1C)C(=O)Nc1ccc(C(N)=O)cc1 (stereo not drawn) | – | inconclusive: 44.7 µM [inhibitor, partial curve] |
